# Measured values: PubChem BioAssay AID686979 (National Center for Advancing Translational Sciences (NCATS), 2013)
# “And” between values parts separate entries of the source, which are not always exact repeats. Identical values can stand only once. Screen size: about 420,000 compounds; about 50,000 (12%) were called active. Inconclusive means that the source gave no clear call. Such entries were picked first, then a sample of the others. The call rests on the fitted dose curve; in most records, active means well fitted inhibition curve with a large enough effect; inconclusive means small, poorly fitted or top-dose-only effect; inactive means flat fitted curve, though single readings scatter. Where the call is inconclusive, the potency comes from a doubtful curve fit.
# Assay: qHTS for Inhibitors of human tyrosyl-DNA phosphodiesterase 1 (TDP1): qHTS in cells in presence of CPT; further: nearly all actives have a fitted effect of over 55% in size
# Conditions: chicken DT40 Tdp1-/-;hTDP1 cells + 20 nM CPT, ATP luminescence, 48 h; activity change, negative = growth inhibition: at 46.2 µM (top of the series)
# Procedure, shortened: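 Chicken DT40 Tdp1-/- cells complemented with human TDP1, 400 cells/well, exposed to compounds plus 20 nM camptothecin for at least 48 h at 37 C; viability read as ATP content by CellTiter-Glo luminescence.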
# On the % scale 0 is the no-effect control and ±100 the full control effect; potency means the concentration at half of the fitted maximal effect; tags describe the fitted curve by direction and shape.
SMILES,Potency,"activity change, negative = growth inhibition"
CN(Cc1ccccc1)S(=O)(=O)c1ccc(OCC(=O)NCc2cccnc2)cc1,inactive,
COc1cc(NC(=O)Cn2c(=O)n(Cc3ccco3)c(=O)c3sc4ccccc4c32)cc(OC)c1,inactive,
CCOc1ccc(Br)cc1S(=O)(=O)Nc1ccccc1N1CCOCC1,"inconclusive: 20.6 µM [inhibitor, single point]",
COc1ccc(CCNC(=O)C(C)n2nc(C)c3c(C)n(-c4ccc(C)cc4)nc3c2=O)c(OC)c1 (centres undefined),active: 23.1 µM,
C=CCN(C(C(=O)OC)C(C)C)S(=O)(=O)CCNCc1ccccc1 (centres undefined),"inactive and inconclusive: 35.5 µM [inhibitor, single point]",
O=C(NNc1cc(Br)c(O)c(Br)c1)c1ccccc1,"inconclusive: 23.1 µM [inhibitor, partial curve, poor fit]",
CC12c3ccccc3C(c3ccccc31)C1C(=O)N(Cc3cccnc3)C(=O)[C@H]12 (some centres undefined),active: 18.4 µM,
O=C1C(=O)N(CCN2CCOCC2)C(c2cccc(Cl)c2)/C1=C(/O)c1ccc2c(c1)OCO2 (centres undefined),inactive,
O=C(CSc1c2c(nc3ccc(Cl)cc13)CCCC2)NCCCN1CCOCC1,"inconclusive: 29.1 µM [inhibitor, single point]",
CCc1ccc(N(CC(=O)Nc2sc3c(c2C(=O)OC)CCCC3)S(C)(=O)=O)cc1,active: 23.1 µM,
CCOc1ccc(NC(=O)COC(=O)CCN2C(=O)C3CC=CCC3C2=O)cc1OCC (centres undefined),inactive,
CCn1cc(C(=O)OCc2ccc(F)cc2)c(=O)c2ccc(C)nc21,"inconclusive: 32.6 µM [inhibitor, partial curve, poor fit]",
COc1cccc(NC(=O)c2ccc(NC(=O)C3CC(=O)OC34CCCCC4)cc2)c1 (centres undefined),active: 18.4 µM,
Cc1ccc(C)c(N2CCN(C(=O)C3CCN(c4nc5ccc(C)cc5[nH]4)CC3)CC2)c1,active: 4.11 µM,
COc1cccc(S(=O)(=O)N2CCN(C(=O)c3ccco3)CC2)c1,"inconclusive: 13 µM [inhibitor, partial curve, poor fit]",
CCC(=O)Nc1nc2ccccc2n1Cc1ccccc1C,active: 14.6 µM,
Cc1cccc(NC(=O)CSc2ncc3c(n2)-c2ccccc2N(Cc2ccc(F)cc2)S3(=O)=O)c1C,"inconclusive: 29.1 µM [inhibitor, single point]",
CCC(C)c1ccccc1N1CC(C(=O)NCCCn2nc(C)cc2C)CC1=O (centres undefined),inactive,
CC(C)CC[n+]1ccn(-c2nc3ccccc3nc2[N-]S(=O)(=O)c2ccccc2)c1,,inconclusive: -31.1% [inhibitor]
CCOc1ccccc1/C=c1\sc2ncnn2c1=O,"inconclusive: 18.4 µM [inhibitor, single point]",
O=C(CCCCCBr)N1CCC(CC2CC(c3cccc(Br)c3)=NO2)(C(=O)NCC2CCCCC2)CC1 (centres undefined),"inconclusive: 25.9 µM [inhibitor, single point]",
CCN1CCN(c2c(C=O)c(Cl)nc3ccc(OC)cc23)CC1,"inconclusive: 25.9 µM [inhibitor, single point]",

SMILES,Potency,"activity change, negative = growth inhibition"
CCc1cccc(NC(=O)CCC(=O)N2CCSc3ccccc32)c1,"inconclusive: 23.1 µM [inhibitor, single point] and inconclusive: 29.1 µM [inhibitor, single point]",
O=C(/C=C/c1cccc(O)c1)c1ccc(N2CCOCC2)cc1,"inconclusive: 20.6 µM [inhibitor, single point]",
CCOc1ccc(C(=O)CCN2CCCCCC2)cc1,active: 3.66 µM,
COC(=O)c1ccc(CSc2nc3ccccc3c(=O)n2-c2ccc(OC)c(OC)c2)o1,active: 16.4 µM,
Clc1cccc(C[n+]2cc(-c3ccccc3)n3c2CCC3)c1,active: 2.91 µM,
Cc1cc(-c2ccc(C)c(S(=O)(=O)N3CCN(c4cccc(C(F)(F)F)c4)CC3)c2)on1,"inconclusive: 11.6 µM [inhibitor, partial curve]",
Cc1cccc(CCNC(=O)c2ccc3c(c2)N(Cc2ccccc2F)C(=O)c2ccccc2S3)c1,inactive,
CN(C)CCCn1c(NC(=O)C2CCCCC2)nc2ccccc21,"inconclusive: 20.6 µM [inhibitor, single point]",
Cc1ccn2cc(-c3ccc(NS(=O)(=O)c4ccccc4)cc3)nc2c1,,inconclusive: -31.3% [inhibitor]
O=C(Nc1ccn(Cc2ccccc2)n1)c1n[nH]c([N+](=O)[O-])c1Cl,inactive,
CC(=O)Nc1cc(-c2ccccc2CN(C)C)cn2c(-c3ccc(C(C)=O)cc3)cnc12,"inconclusive: 29.1 µM [inhibitor, single point]",
C=CCOc1c(Br)cc(/C=N/Nc2ccc(C(=O)O)cc2)cc1OCC,"inconclusive: 0.461 µM [inhibitor, partial curve, poor fit]",
Cc1ccc2ccccc2c1C(O)c1ncc(-c2ccc(F)cc2)[nH]1 (centres undefined),"inconclusive: 23.1 µM [inhibitor, single point]",
O=C(CSC1=NCCS1)NC(c1ccccc1)c1ccccc1,"inconclusive: 29.1 µM [inhibitor, single point]",
O=C(CCN1C(=O)C2CC=CCC2C1=O)Nc1nc(-c2ccc(F)c(F)c2)cs1 (centres undefined),active: 13 µM,
CCCOc1cccc(-c2cc(C(=O)N/N=C/c3cccnc3)c3ccccc3n2)c1,active: 9.2 µM,
CCOC(=O)c1csc(NC(=O)CSc2nnc(C3CC3)n2C)n1,"inconclusive: 29.1 µM [inhibitor, single point]",
CC(NC(=O)C1CCN(S(=O)(=O)c2cc([N+](=O)[O-])ccc2Cl)CC1)c1ccccc1 (centres undefined),"inconclusive: 23.1 µM [inhibitor, partial curve]",
CCN(CC)C(=O)c1c(-c2ccccc2)c(-c2ccccc2)nn(C)c1=O,inactive,
COc1ccc(-c2oc3ccccc3c2C#CC(C)(C)O)cc1,"inconclusive: 29.1 µM [inhibitor, single point]",
O=C(NCCc1ccc(Cl)cc1Cl)C1=CC=CN2CCS(=O)(=O)N=C12,inactive,
Cc1ccc(OCCOCCOc2ccc(Br)cc2/C=N\NC(=O)c2ccncc2)cc1,active: 18.4 µM,
